The text below walks through data of the supplement of paper PMC4967469.

Usually IC50 stands for the concentration that gives 50% inhibition.

The IC50 comes from the fitted curve, where viability falls to half of the control; a fit beyond the top or the lowest dose is shown as a bound at that dose. For AUC the same curve is integrated over the 256-fold range of doses and scaled to a fraction; the more sensitive the line, the further below 1. For part of these data: Where the top dose is marked as inferred, it was derived from the fitted curves, not read from the paper.

What all share (experiment): Viability of human cancer cell lines after 72 h of drug (GDSC screen)
Compound in one test: C=C(c1ccc(C(=O)O)cc1)c1cc2c(cc1C)C(C)(C)CCC2(C)C [Bexarotene]
As to conditions: top dose 8 µM. As to the method: (§1)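 Human cancer cell lines in 384-well plates, medium with 10% serum, drug for 72 h over a 256-fold dose range (nine 2-fold or five 4-fold steps up to the top dose). Adherent lines were fixed and stained with the nucleic acid dye Syto60, suspension lines read with resazurin; signal relative to control wells, capped at 0 and 100%. One two-parameter sigmoid per drug and line, fitted in a mixed model over all curves with the slope shared within a line.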

Compound in a further test: NC(=O)Nc1cc(-c2cccc(F)c2)sc1C(=O)N[C@H]1CCCNC1 [AZD7762]
As to conditions: top dose 2 µM. As to the method: as §1

Compound in the next test: COc1cc([C@@H]2c3cc4c(cc3[C@@H](O[C@@H]3O[C@@H]5CO[C@@H](C)O[C@H]5[C@H](O)[C@H]3O)[C@H]3COC(=O)[C@H]23)OCO4)cc(OC)c1O [Etoposide]
As to conditions: top dose 16 µM. The method, then:
as §1

Compound in a further test: O=C(O)c1ccc(-c2c[nH]c3ncc(-c4ccccc4)cc23)cc1C1CCCC1 [GSK-650394]
As to conditions: top dose 16 µM; top dose inferred. The method, then: as §1

Compound in another test: COc1cc(C(=O)NC2CCN(C)CC2)ccc1Nc1ncc2c(n1)N(C1CCCC1)C(C)CC(=O)N2C [NPK76-II-72-1]
As to conditions: top dose 10.24 µM; top dose inferred. As to the method: as §1

Compound in the next test: COc1ccc(C(=O)CC2(O)C(=O)Nc3c(Cl)ccc(Cl)c32)cc1 [YK 4-279]
As to conditions: top dose 10 µM. As to the method: as §1

Compound in another test: Oc1nc(-c2ccc(C(F)(F)F)cc2)nc2c1CSCC2 [XAV 939]
As to conditions: top dose 5 µM; top dose inferred. As to the method: as §1

Compound in a further test: Cc1ccc2nc(NCCN)c3ncc(C)n3c2c1 [BMS-345541]
As to conditions: top dose 16 µM. The method, then:
as §1

On to Becker (glioma, adherent), for which the AUC with Bexarotene was determined as 0.927; with AZD7762 it was 0.745; in the test with Etoposide it was 0.83; with GSK-650394 it was 0.953; in the test with NPK76-II-72-1, 0.907; with YK 4-279 it was 0.554. In addition, the figures for the AUC in the test with XAV 939 and with BMS-345541 were 0.922 and 0.923, respectively. Also, the IC50 with Bexarotene is above 8 µM; in the test with AZD7762 it was 0.696 µM; in the test with Etoposide, 11.9 µM; with GSK-650394, above 16 µM; with NPK76-II-72-1 it was above 10.2 µM; with YK 4-279 it was 0.892 µM. For the same cell line, the 50% inhibitory concentration (IC50) with XAV 939 was above 5 µM; with BMS-345541, above 16 µM.
BxPC-3 (pancreas, adherent): the AUC in the test with Bexarotene stood at 0.982; in the test with AZD7762, 0.625; in the test with Etoposide, 0.856; in the test with GSK-650394, 0.86; with NPK76-II-72-1, 0.859; in the test with YK 4-279 it was 0.7. In addition, the AUC with XAV 939 came out at 0.926; with BMS-345541, 0.866. Besides, the 50% inhibitory concentration (IC50) in the test with Bexarotene is above 8 µM; in the test with AZD7762, 0.29 µM; with Etoposide it was 15.5 µM; in the test with GSK-650394, above 16 µM; in the test with NPK76-II-72-1 it was above 10.2 µM; in the test with YK 4-279, 2.45 µM. The results for the concentration for half-maximal inhibition (IC50) in the test with XAV 939 and with BMS-345541 were above 5 µM and above 16 µM, respectively.
As to C3A (liver, adherent), the AUC stood at 0.948 with Bexarotene; 0.955 with AZD7762; 0.744 with Etoposide; 0.828 with GSK-650394; 0.988 in the test with NPK76-II-72-1; 0.794 with YK 4-279. Also, the AUC in the test with XAV 939 is 0.973; with BMS-345541, 0.95. The IC50 with Bexarotene is above 8 µM; with AZD7762 it was above 2 µM; with Etoposide it was 5.18 µM; with GSK-650394, 10.4 µM; with NPK76-II-72-1, above 10.2 µM; with YK 4-279 it was 4.82 µM. Also, the half-inhibitory concentration (IC50) was above 5 µM in the test with XAV 939 and above 16 µM with BMS-345541.
Turning to CA46 (Burkitt lymphoma, suspension), the AUC with Bexarotene came out at 0.956; in the test with AZD7762 it was 0.834; with Etoposide it was 0.913; in the test with GSK-650394, 0.906; in the test with NPK76-II-72-1, 0.676; with YK 4-279, 0.762. The results for the AUC with XAV 939 and with BMS-345541 were 0.95 and 0.716, respectively. For the same cell line, the 50% inhibitory concentration (IC50) with Bexarotene is above 8 µM; with AZD7762 it was 1.44 µM; with Etoposide it was above 16 µM; with GSK-650394, above 16 µM; with NPK76-II-72-1 it was 2.07 µM; in the test with YK 4-279, 3.83 µM. In addition, the figures for the 50% inhibitory concentration (IC50) with XAV 939 and with BMS-345541 were above 5 µM and 4.31 µM, respectively.
In the case of CAKI-1 (kidney, adherent), the AUC with Bexarotene is 0.799; with AZD7762, 0.64; with Etoposide it was 0.757; in the test with GSK-650394, 0.933; with NPK76-II-72-1, 0.972; with YK 4-279 it was 0.818. Also, the AUC in the test with XAV 939 is 0.843; in the test with BMS-345541, 0.811. Besides, the 50% inhibitory concentration (IC50) with Bexarotene was 6.34 µM; with AZD7762, 0.369 µM; in the test with Etoposide, 8.21 µM; with GSK-650394, above 16 µM; in the test with NPK76-II-72-1, above 10.2 µM; in the test with YK 4-279, 9.79 µM. For the same cell line, the figures for the 50% inhibitory concentration (IC50) with XAV 939 and in the test with BMS-345541 were above 5 µM and 14.4 µM, respectively.
Regarding CAL-29 (bladder, adherent), the AUC with Bexarotene was determined as 0.98; with AZD7762, 0.675; with Etoposide it was 0.67; in the test with GSK-650394, 0.981; with NPK76-II-72-1 it was 0.953; in the test with YK 4-279, 0.742. The AUC is 0.915 with XAV 939 and 0.934 in the test with BMS-345541. The IC50 with Bexarotene was above 8 µM; with AZD7762, 0.402 µM; in the test with Etoposide, 3.09 µM; with GSK-650394, above 16 µM; with NPK76-II-72-1, above 10.2 µM; in the test with YK 4-279 it was 3.27 µM. Besides, the IC50 was above 5 µM with XAV 939 and above 16 µM with BMS-345541.
As for CAL-39 (cervix, adherent), the AUC with Bexarotene stood at 0.95; in the test with AZD7762 it was 0.909; in the test with Etoposide, 0.723; with GSK-650394, 0.697; with NPK76-II-72-1, 0.966; with YK 4-279, 0.611. Also, the AUC in the test with XAV 939 is 0.963; with BMS-345541, 0.925. Moreover, the concentration for half-maximal inhibition (IC50) is above 8 µM with Bexarotene; above 2 µM with AZD7762; 4.41 µM in the test with Etoposide; 3.66 µM in the test with GSK-650394; above 10.2 µM with NPK76-II-72-1; 1.28 µM in the test with YK 4-279. The IC50 was above 5 µM with XAV 939 and above 16 µM with BMS-345541.
For the cell line CAL-51 (breast, adherent), the AUC in the test with Bexarotene was 0.951; with AZD7762 it was 0.745; with Etoposide, 0.448; with GSK-650394, 0.733; with NPK76-II-72-1, 0.991; in the test with YK 4-279, 0.648. Moreover, the AUC with XAV 939 worked out at 0.949; with BMS-345541, 0.941. Also, the 50% inhibitory concentration (IC50) with Bexarotene was above 8 µM; with AZD7762, 0.558 µM; with Etoposide, 0.735 µM; in the test with GSK-650394, 4.13 µM; with NPK76-II-72-1 it was above 10.2 µM; in the test with YK 4-279 it was 1.51 µM. Besides, the IC50 in the test with XAV 939 was above 5 µM; with BMS-345541, above 16 µM.
In the case of CAL-72 (osteosarcoma, adherent), the AUC with Bexarotene amounted to 0.908; with AZD7762 it was 0.66; with Etoposide, 0.907; in the test with GSK-650394 it was 0.957; with NPK76-II-72-1, 0.984; with YK 4-279 it was 0.74. Also, the values for the AUC in the test with XAV 939 and with BMS-345541 were 0.977 and 0.984, respectively. The IC50 with Bexarotene was above 8 µM; in the test with AZD7762, 0.378 µM; with Etoposide, above 16 µM; with GSK-650394, above 16 µM; with NPK76-II-72-1, above 10.2 µM; with YK 4-279 it was 3.5 µM. Moreover, the IC50 with XAV 939 is above 5 µM; with BMS-345541 it was above 16 µM.
